Values joined by “and” are separate entries in the source; they are usually repeats but may differ in a detail not shown here. Equal values may be shown once. The whole screen tested about 410,000 compounds, of which about 5,000 (1.2%) were called active. The shares of active, inactive and inconclusive entries below differ from those in the screen. The call rests on the fitted dose curve; in most records, active means well fitted inhibition curve with a large enough effect; inconclusive means small, poorly fitted or top-dose-only effect; inactive means no such curve, though single readings can be large or run the other way. Potencies of inconclusive entries are doubtful fits and often do not repeat.
Test: qHTS for Inhibitors of TGF-b; further: nearly all actives have a fitted effect of over 65% in size
Details: HepG2 CAGA-GFP TGF-b/SMAD3 reporter, GFP fluorescence, 18 h, TGF-beta stimulated, 500 pg/mL final; series mostly up to 46.1 µM
In short: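 TGF-beta reporter screen: HEPG2 CAGA-GFP, 1% FBS, 500 pg/mL TGF-beta final, 18 h; per-cell GFP summed per well; curves fitted and categorized by class.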
With `COc1ccc(C(C#N)=Cc2cccc(OC)c2OC)cc1` the Potency was “inactive”.
For `CCCCCCCCNS(=O)(=O)CCNCCc1ccccc1`, the Potency was inconclusive: 35.5 µM [inhibitor, single point].
For `Cc1nn2c(=O)cc(COc3ccc(/C=C(\C#N)C(=O)Nc4ccccc4)cc3Cl)nc2s1`, the Potency was inconclusive: 35.5 µM [inhibitor, single point].
For `CCOC(=O)N1CCN(C(=S)NC(=O)/C=C/c2ccc(C)cc2)CC1`, the Potency was inconclusive: 14.1 µM [inhibitor, single point].
In the case of `O=c1c2ccccc2cnn1Cc1n[nH]c(=S)n1-c1ccccc1`, the Potency is reported as inconclusive: 35.5 µM [inhibitor, single point].
In the case of `Cc1sc2nc(CN3CCOCC3)nc(NCCc3ccccc3)c2c1C`, the Potency is reported as “inactive”.
With `O=C(CNc1ccccc1)N/N=C/c1c(O)ccc2ccccc12` the Potency was inconclusive: 12.6 µM [inhibitor, partial curve].
In the case of `CCOc1ccccc1NC(=O)N1CCc2c(sc3c2CCCC3)C1c1ccccc1` (stereo not given), the Potency is reported as inconclusive: 35.5 µM [inhibitor, single point].
With `CCc1ccc(N2CC(C(=O)N/N=C/c3cccc([N+](=O)[O-])c3)CC2=O)cc1` (stereo not given) the Potency was inconclusive: 3.98 µM [inhibitor, partial curve, poor fit].
With `COc1ccc(/C=C2\SC(=S)N(CCCC(=O)N3CCCCC3CCO)C2=O)cc1` (stereo not given) the Potency was inconclusive: 35.5 µM [inhibitor, single point].
For `COCc1c(C(=O)NCCc2ccc(OC(F)F)cc2)oc2ccccc12`, the Potency was inconclusive: 35.5 µM [inhibitor, single point].
With `CCN(c1ccc(OCC(=O)OCC(=O)Nc2ccc(F)c(F)c2F)cc1)S(=O)(=O)c1ccccc1` the Potency was inconclusive: 2.82 µM [inhibitor, single point].
In the case of `Cn1cnc([N+](=O)[O-])c1Oc1ccc2ccccc2c1`, the Potency is reported as inconclusive: 10 µM [inhibitor, partial curve, poor fit].
In the case of `Cc1nn(C)cc1NC(=O)CCSc1nc(-c2ccco2)cc(C(F)(F)F)n1`, the Potency is reported as inconclusive: 0.891 µM [inhibitor, full curve, poor fit].
With `Cc1ccc(NCc2ccccc2O)cc1C` the Potency was inconclusive: 12.6 µM [inhibitor, partial curve].
For `O=C(Cn1cnc2c(cnn2-c2ccccc2)c1=O)Nc1ccc(S(=O)(=O)N2CCOCC2)cc1`, the Potency was inconclusive: 35.5 µM [inhibitor, single point].
In the case of `CCOC(=O)CCNC(=O)Nc1ccc2nc(C)n(Cc3cccc(Cl)c3)c(=O)c2c1`, the Potency is reported as inconclusive: 28.2 µM [inhibitor, single point].
In the case of `O=C1CCCN1CCCNS(=O)(=O)c1ccc(F)cc1F`, the Potency is reported as inconclusive: 12.6 µM [inhibitor, single point].
With `Cc1nn(CCCC(=O)Nc2cccc(C(F)(F)F)c2)c(=O)c2nn(-c3ccccc3)c(C)c12` the Potency was inconclusive: 7.94 µM [inhibitor, partial curve, poor fit].
In the case of `c1csc(CNc2nc(NCC3CCCCC3)c3sccc3n2)c1`, the Potency is reported as inconclusive: 25.1 µM [inhibitor, single point].
For `CCCCC(CC)CNC(=O)CCS(=O)(=O)c1cccc2nonc12` (stereo not given), the Potency was inconclusive: 6.31 µM [inhibitor, single point].
In the case of `CCSc1nnc(NC(=O)c2cc3c(s2)CCCC3)s1`, the Potency is reported as inconclusive: 0.562 µM [inhibitor, partial curve, poor fit].
In the case of `CCN(C(=O)CSc1nc2ccccc2c(=O)n1-c1cccc(C)c1)C1CCS(=O)(=O)C1` (stereo not given), the Potency is reported as inconclusive: 35.5 µM [inhibitor, single point].
In the case of `Cc1ccc2cc(CN(Cc3ccco3)C(=O)C3CCCCC3)c(=O)[nH]c2c1C`, the Potency is reported as “inactive”.
With `O=C(c1cccs1)N1CCC(c2ccccc2)C1` (stereo not given) the Potency was “inactive”.
For `N#CCc1nc2n(n1)Cc1ccccc1-2`, the Potency was inconclusive: 35.5 µM [inhibitor, single point].
With `CNC(=O)c1cc(Oc2ccc(NC(=O)Nc3ccc(Cl)c(C(F)(F)F)c3)cc2)ccn1` the Potency was inconclusive: 7.08 µM [inhibitor, partial curve, poor fit] and inconclusive: 20 µM [inhibitor, partial curve, poor fit].
With `O=C(O)CCN1C(=O)c2ccc(NC(=O)COc3ccccc3)cc2C1=O` the Potency was “inactive”.
With `COc1ccc(C(=O)NCCn2cc(SCC(=O)Nc3ccc(F)cc3)c3ccccc32)cc1` the Potency was inconclusive: 35.5 µM [inhibitor, single point].
For `FC(F)(F)c1nc2ccccc2nc1N/N=C\c1ccccc1`, the Potency was inconclusive: 11.2 µM [inhibitor, partial curve, poor fit].
For `O=C(NCc1ccccc1)C1=C[C@@H](c2ccc(Br)cc2)C[C@@H](OCc2ccc(CO)cc2)O1`, the Potency was inconclusive: 22.4 µM [inhibitor, partial curve, poor fit].
With `COc1ccc(N2C(=O)C(C)(C)C2c2c(O)ccc3ccccc23)cc1` (stereo not given) the Potency was inconclusive: 35.5 µM [inhibitor, single point].
With `CC(=O)Nc1ccc(S(=O)(=O)Nc2cccc(-c3ccc(N4CCCCCC4)nn3)c2)cc1` the Potency was “inactive”.
In the case of `COc1cc(C(=O)N2CCC(c3nc4ccccc4s3)CC2)cc(OC)c1OC`, the Potency is reported as “inactive”.
In the case of `Cc1ccc(-n2nc(C)c3c(C)c(CCC(=O)Nc4ccc(CN5CCCC5)cc4)c(C)nc32)cc1`, the Potency is reported as inconclusive: 28.2 µM [inhibitor, single point].
With `Cc1ccc(-c2csc(-c3c[nH]c4ccccc34)n2)cc1` the Potency was inconclusive: 35.5 µM [inhibitor, single point].
With `CCCCOc1ccc(CNC(=O)C2CCCN(c3nnc(-n4c(C)ccc4C)s3)C2)cc1` (stereo not given) the Potency was inconclusive: 35.5 µM [inhibitor, single point].
For `Cc1cccc(NC(=O)CCc2c(C)nn(-c3ccc(N4CCOCC4)nn3)c2C)c1`, the Potency was “inactive”.
For `CCc1ccc(-c2cc(C)no2)cc1S(=O)(=O)Nc1cc(OC)c(OC)c(OC)c1`, the Potency was inconclusive: 10 µM [inhibitor, partial curve, poor fit].
In the case of `Cc1ccccc1OCCC(=O)OCC(=O)NCCc1ccccc1`, the Potency is reported as “inactive”.

— PubChem BioAssay AID588855 (National Center for Advancing Translational Sciences (NCATS), 2011)
Potency means the concentration at half of the fitted maximal effect; tags describe the fitted curve by direction and shape.
